Data published in the supplement of paper PMC11417369.
The other results are listed elsewhere or left out.

System: PF3D7_0420300 AP2 domain 1 (GST-tagged)
Experiment: gcPBM binding intensity (ln(normalized median fluorescence intensity)); higher = stronger DNA binding
Procedure, shortened: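 GST-tagged P. falciparum DNA-binding domains, expressed in E. coli (about 25 μg on average), were applied for 1 h to an Agilent 4 × 180k array of primer-extended double-stranded 36-bp intergenic genomic probes plus negative controls. The binding buffer was 1× PBS with 1% milk, 0.2 mg/ml BSA, 0.5% salmon testes DNA and 0.03% Triton X-100. Bound protein was detected with Alexa488 anti-GST antibody and scanned at 488 nm. Binding intensity is the highest Masliner-normalised natural-log median intensity across replicate spots of either probe orientation.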

| Sequence | gcPBM binding intensity (ln) |
| --- | --- |
| AATATTTACCAGAAAATAAAAATATGTATATATATA [CACACA_negctrl_site351] | 9.32 |
| TTTTTATTCAACAAAAATATCAAACATAATTATAAA [CACACA_negctrl_site616] | 8.93 |
| AATATTTATATTTACACACACATAATACATATATGT [CACACA_site33] | 9.97 |
| TTCCTTTAACCCTGCACACATACATACATTTATATG [CACACA_site3953] | 9.77 |
| ATTTTTATGTCTTTCTATAAATCGAAAATATACATA [CACACA_negctrl_site477] | 9.02 |
| ATATACAACTAAAGAACACACATCATTGTTCATTGG [CACACA_site3681] | 9.57 |
| CAAATACACGGACACACACACACAAAAAAAAAAAAA [CACACA_site6385] | 10.1 |
| AAATTATTGTAAAATAGTACAGTGAAACATAAAGTT [XGTACX_site589] | 9.55 |
| TAAATACAAGTAAAAAGTACAGAAAAATTATATATA [XGTACX_site1758] | 9.41 |
| TTTATTTGGACATATACACACTTAAATATGTTTATT [CACACA_site6021] | 9.32 |
| TTTATTTTGTTTTCTTGTACATAAATAATTACATAT [XGTACX_site4227] | 9.44 |
| TATAAAAAATTCAATACACACCATATATAAATATAT [CACACA_site6060] | 9.56 |
| AAGAGAAATGGGCACACACACACATATTATAGATAT [CACACA_site6828] | 10.2 |
| TGATTCACTATAGTAGTGCATATTATATATATATAT [GTGCAC_site9975] | 9.2 |
| TATAATAATTCATAATGTACTTTTATCAAAAAAGTA [XGTACX_site6868] | 8.87 |
| ATTCTACACGCACATACACACATATAAATATAAATA [CACACA_site7582] | 9.78 |
| ATTTATGTTATTGTATGTACACAATATAATGTTATT [XGTACX_site5657] | 9.4 |
| AAAAAAAAATATATATATATATATATATAATAAAAA [CACACA_negctrl_site639] | 8.99 |
| AAAAAAAAAAAATGTGCACACGCGTACAGACAAAAA [CACACA_site2005] | 9.91 |

| Sequence | gcPBM binding intensity (ln) |
| --- | --- |
| TAAAAAGTACATTATTCATGGCCTATTACATTTTTT [GTGCAC_negctrl_site282] | 9.19 |
| ATATTTTACATATTTGCACACATATATTTAAATACA [CACACA_site4628] | 9.63 |
| ACACAAAAATAGTTTTTTATATTGTTAACCTTATAT [XGTACX_negctrl_site123] | 9.37 |
| ATAATATATATGAAATGTACATAAATTTAATGCGAC [XGTACX_site5394] | 9.76 |
| ATGTGCACATGTAGAAGTACTTTTTCTTAAAATACT [XGTACX_site8341] | 9.09 |
| TATGTTTTATATAAGATGCACTTTTGTTATGCTTCA | 9.15 |
| CTTTTTTTTTTGTATTGTACTTTATTTTTACATCGT [XGTACX_site2918] | 9.65 |
| ATTCTAATTTTATGAAACGATTATTTTGAATTCATT [XGTACX_negctrl_site578] | 9.13 |
| ATTTTTAATTTTTTCACACATATATTTAAAATAAAA [CACACA_site4799] | 9.08 |
| GATTACCTTTTTTTTTTTTTTTTTTTTTTTTTTTTC [CACACA_negctrl_site147] | 9.14 |
| ATAAAAAAAAATATATGTACATATATAAATTGATAT [XGTACX_site7409] | 9.35 |
| TATATTTTTTAAAAAAGTACAAAGTAATTATTGATT [XGTACX_site2420] | 9.06 |
| TGAAATGAAAGAACAGCACACATATATATTATATAT [CACACA_site8613] | 9.54 |
| GTAGTACATTCTAGAATACACACCTATATATATATA [CACACA_site522] | 9.44 |
| ATATGAAAAACTTCATGTACTTATTATAAAATATAA [XGTACX_site2725] | 8.93 |
| CGTCCAAAATATCCTTCACACACGAACAGTTTCATT [CACACA_site2729] | 9.63 |
| CTATAATATTATAACAGTACATAATATTATATATAT [XGTACX_site1414] | 9.24 |
| TTTAAATAAAAATGGAGTACTCTAAAAAAAAAAAAA [XGTACX_site1233] | 9.04 |
| ATATATATATATAATACACACATAAATGAATATATA [CACACA_site316] | 9.59 |

| Sequence | gcPBM binding intensity (ln) |
| --- | --- |
| TTTATATAATATTCTACACACCAACAACAAACATAT [CACACA_site4478] | 9.76 |
| GCATTGATCAAACATACACACATGGTTAATAAAAAT [CACACA_site2085] | 9.43 |
| GTGATTTCTATGAATTGTACTTAAATATAGTTATAT [XGTACX_site231] | 9.27 |
| TTATAGACATATATAGGTACACATATTTTCAATCCC [XGTACX_site8230] | 9.27 |
| ATTTATTAATCATATACACACATATATTTGTATTTA [CACACA_site1336] | 9.58 |
| TATTTTTTTAAAATAGGTACACAATCAAACATTTAT [XGTACX_site8785] | 9.08 |
| ACCTCATAATATTTAACACACAAAATTATCTGTATG [CACACA_site5015] | 9.64 |
| AATATATATATAAATAGTACATATAAAGAGAATTTT [XGTACX_site3168] | 9.44 |
| CAGAAATATTCTTATACACACTGTTCTTATATTCCT [CACACA_site4318] | 9.51 |
| ATTAAAACAAAATGTACACACATATAATTTAATGAC [CACACA_site878] | 9.58 |
| TTTATCTTTTTTTGTTGTACAGATGTTTATATTTTA [XGTACX_site4065] | 9.53 |
| AATAACATTATTTTATGTACACATGAAAAATAAAAT [XGTACX_site4657] | 9.26 |
| TGTAATAAACTACTTTTTTTTTTTTTTTTTTTTTTT [CACACA_negctrl_site1021] | 9.22 |
| AATATCAAAATAACATGTACATGTTATATTTTATTT [XGTACX_site5891] | 9.22 |
| TGATATTTCATCATAGTGCAATATGGCATATAAATA [GTGCAC_site9433] | 9.14 |
| GTATATATCTCAGAGCATAATAGTATAATTCGGTCA [CACACA_negctrl_site876] | 9.24 |
| AATTATTTTAGAAACACACAAATTAGAAAAAACATA [CACACA_site7673] | 9.62 |
| AAAAAATATAAAAAAACACACAAAAAAAAAAAAAAA [CACACA_site1382] | 9.4 |
